# In the supplement of paper PMC3334620:
# Whole data set: some 33,000 sequences, median “E-score (-0.5 to 0.5)” near -0.013, cut for the highest 2% near 0.3. The list shows a part of the results.
# Target: T1, Msn1 (UniProt P22148)
# T1 sequence: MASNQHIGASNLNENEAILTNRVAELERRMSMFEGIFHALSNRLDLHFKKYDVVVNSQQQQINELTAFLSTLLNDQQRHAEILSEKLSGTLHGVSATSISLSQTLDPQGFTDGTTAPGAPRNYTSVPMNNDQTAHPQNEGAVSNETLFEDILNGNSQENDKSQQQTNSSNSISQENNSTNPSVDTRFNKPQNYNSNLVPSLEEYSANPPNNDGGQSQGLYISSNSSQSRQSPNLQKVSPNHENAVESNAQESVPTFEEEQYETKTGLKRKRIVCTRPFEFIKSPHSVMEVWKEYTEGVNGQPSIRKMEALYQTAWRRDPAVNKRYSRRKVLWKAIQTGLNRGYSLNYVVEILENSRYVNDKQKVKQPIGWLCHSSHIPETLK
# Assay: PBM E-score (8-mer binding enrichment) (E-score (-0.5 to 0.5)); higher = stronger / more preferred TF binding; most listed sequences are background and not binding sites
# Conditions: protein concentration: 200 nM; construct: GST-full length
# Experimental: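 Universal 'all 10-mer' protein binding microarrays (Agilent AMADID 015681) probed with GST-tagged S. cerevisiae TFs (full-length or DBD) made by in vitro transcription/translation (PURExpress), about 100-200 nM. Bound TF was detected with fluorescent anti-GST. Each ungapped 8-mer (which stands for itself and its reverse complement) is scored by the PBM enrichment score (E-score), a modified Wilcoxon-Mann-Whitney statistic from -0.5 to +0.5, computed with the Universal PBM Analysis Suite. Scale: above 0.35 generally sequence-specific binding.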
row,Sequence,PBM E-score
1,CTCGAGGA,-0.0212
2,ACATGGTG,0.222
3,AAGAGCAT,0.0863
4,AGTATCAG,-0.0273
5,ATGGCAAG,0.0283
6,AGCGCTTC,-0.00484
7,CAAAATGG,0.133
8,CCCGAACG,0.12
9,TAACGGAA,0.147
10,ACCCGGGT,-0.218
11,CACTTGGG,-0.13
12,TGCCACAA,0.16
13,CAACATTC,-0.11
14,CGTTACGC,-0.011
15,CCCCCTTC,-0.455
16,CTAAAAGC,-0.0186
17,AAATGTTC,0.284
18,ATTCCGCA,0.0586
19,CTTTGAGA,0.125
20,AACCCATG,0.0122
21,TTAAGGAA,0.051
22,CTAGATCA,-0.071
23,ACCGTGAG,-0.224
24,AGGAAAGG,-0.18
25,ACACGAAG,0.152

row,Sequence,PBM E-score
1,CTTGCTGC,-0.146
2,CGTTCAAC,0.109
3,GATGCAAC,-0.167
4,AGCTCATC,-0.267
5,AACTCGAA,0.0292
6,CGCAGTAC,-0.045
7,GACGGGCA,-0.182
8,CCTAACAG,-0.0289
9,TCGCCTAA,0.0838
10,CATGGCTA,-0.0195
11,GCTTATTA,0.0314
12,ACGTTATG,0.0794
13,GGACAGAA,0.332
14,AAACTAGT,0.0401
15,GATTCCGA,0.0558
16,ATGAGCGC,-0.0886
17,CGCTCTTC,-0.111
18,AAAGATTA,0.258
19,AGCCGCGA,-0.00879
20,ATACGAGG,-0.0611
21,CGTCGCGC,-0.085
22,GGACGATA,-0.157
23,ACTCGCCG,0.163
24,CATCCCGC,-0.125
25,CAGACTCA,-0.093

row,Sequence,PBM E-score
1,GTACACCA,-0.038
2,CGGTAAAG,0.118
3,ACTCAAGC,-0.0463
4,GATCGCAC,-0.0743
5,CTGGACCC,-0.155
6,ACGATCTA,0.0183
7,ACTGGTCG,-0.083
8,GACAGCAA,0.102
9,ACGGATGG,0.00913
10,CATTGCCC,-0.148
11,ATGTTAAA,0.0729
12,AGTAATCC,-0.114
13,AGGGCGAG,-0.274
14,ACGAGGGC,-0.0717
15,GCCTCATA,-0.175
16,CCCTGATA,-0.231
17,GAAGAGTC,-0.11
18,CTGATTCA,0.0146
19,GACTATCA,-0.0683
20,CGTCGATA,0.0412
21,ATCAAAAC,0.00367
22,CAGTTGGA,0.0318
23,ACCTCTTA,0.0962
24,AAAGGCTC,-0.0569
25,TCTCACAA,-0.0426

row,Sequence,PBM E-score
1,AATGAGCT,-0.00686
2,ATCGCAAC,-0.0713
3,AATATGCA,-0.0554
4,ATCAGACC,-0.192
5,GATGTAGC,-0.119
6,GGAAGTCC,0.178
7,CAAGCAGG,-0.205
8,AATCTGAA,-0.0472
9,ACGGCCAA,-0.0109
10,CGTCTCGC,-0.0165
11,AGCAACTC,-0.0296
12,CTCCGTTC,0.0736
13,AATCTAGC,-0.149
14,TAGCATCA,-0.00027
15,TCCCAAAA,0.224
16,GCATCAGC,-0.163
17,CACAGACC,0.0741
18,CACATAGA,0.116
19,CACTCTCA,-0.181
20,GAAATTAA,0.34
21,ACAGATCA,0.119
22,GGCGTGGA,-0.127
23,TCATAACA,0.139
24,CCTTACGA,-0.0982
25,ATCTCTAA,0.026

row,Sequence,PBM E-score
1,TAAAATTA,0.213
2,AGAACCCG,-0.15
3,ATTTATCC,0.221
4,CGATACCC,-0.119
5,AATAACGA,0.0732
6,AGTGTTCG,0.093
7,ATACACGA,0.0174
8,AGACAGGC,0.0437
9,AAGGTCCT,-0.0223
10,AATCGAGT,-0.0102
11,CATACATA,0.174
12,GATGTTTA,0.0255
13,ATAATAGA,0.107
14,CGACCACC,-0.306
15,AATTGAAT,0.128
16,CCACCACC,-0.209
17,ATCCGCGG,0.033
18,GTGACCCA,-0.0261
19,CTACCACC,-0.303
20,CGTGCACG,0.0616
21,CAGGCCCA,-0.143
22,ATCGAAAC,-0.0353
23,GTACCAAC,0.189
24,CCTGCGCA,-0.0866
25,GCCTAAAA,-0.077

row,Sequence,PBM E-score
1,ACGCTGAC,0.0717
2,CTTACGCC,-0.0895
3,TACATCGA,0.21
4,ATCGGGTA,-0.205
5,AGGAATCC,-0.197
6,CCAGTTCG,-0.0865
7,ACGCGTTG,-0.0259
8,CAGTGACG,0.052
9,GCTGTTAA,0.0198
10,CCGTCCTA,-0.0332
11,ACAGCTAT,-0.114
12,CATCGACC,-0.0813
13,ACGGCACT,0.0409
14,AAAACTCA,0.0995
15,GAATGATA,0.254
16,CGTGTGAG,-0.158
17,TATGAAGA,0.115
18,GCATTTTA,0.109
19,AAGCAATT,0.0745
20,AGATGTGA,-0.0694
21,CGGCAAAA,0.0391
22,CACGAGGC,0.00259
23,GGGGTCCA,-0.307
24,CAAGGTAG,-0.16
25,ACGAGGCA,-0.055

row,Sequence,PBM E-score
1,CGGTCGTA,-0.097
2,GCAAAAGC,0.00797
3,GCCATCGA,-0.0255
4,CAGGAGGC,-0.187
5,AACTAAAC,0.0858
6,CGCCGGAG,0.0312
7,CTTCGGTC,0.179
8,ATCTAAAT,0.116
9,CTTTCGCA,0.0391
10,CAATTACC,-0.00784
11,ATTCTCGA,0.176
12,GCTTAGTA,-0.0133
13,ATCGTGAC,0.22
14,AGTGAACG,0.0171
15,CCATAGTA,0.13
16,CTGCTACC,-0.0604
17,ACGCTACC,-0.266
18,AAATACGA,0.0698
19,ACTCCTTG,0.00153
20,AGCGATTC,-0.0453
21,ATTTTATC,0.202
22,AGAGGCCC,-0.282
